Source: ChEMBL document CHEMBL1201862, “PubChem BioAssay data set” (2004)

Each compound was assayed on NCI-H322M (assay: NCI anticancer screen, dose series, 48 h).
`[BH3-][P+]1(CC[P@@+]([BH3-])(c2ccccc2)c2ccccc2OC)[C@@H](C)[C@@H](O)[C@H](O)[C@@H]1C` (stereo not given in full) was tested, and the GI50 was inactive: 13 µM. For `COc1ccc2oc(-c3ccc(OC)c(OC)c3OC)cc(=O)c2c1`, the GI50 was inactive: > 100 µM. With `CN(C)CCNc1ccc(CO)c2oc3ccc(O)cc3c(=O)c12` the GI50 was inactive: 13.3 µM. In the case of `Cc1cn(Cc2ccccc2CCO)c(=S)[nH]c1=O`, the GI50 is reported as inactive: > 100 µM. `Clc1ccc(C2=NCON=C2c2ccc(Cl)cc2)cc1` was tested, and the GI50 was inactive: 18.2 µM. With `COc1ccc(C(OC(C)=O)C2C(=C(C#N)C#N)c3ccccc3C2=C(C#N)C#N)cc1` (stereo not given) the GI50 was inactive: 34.7 µM. With `CC(C)NC(=O)OCc1c(COC(=O)NC(C)C)c(-c2cc[n+](COC(=O)C3CCCCC3)cc2)n2c1CCC2` the GI50 was inactive: > 100 µM. In the case of `Cc1ccc(S(=O)(=O)N(CC(=O)O)c2ccccc2)cc1`, the GI50 is reported as inactive: > 100 µM. For `COc1ccccc1NC(=O)/C(=C/c1ccccc1)C(C)=O`, the GI50 was inactive: 45 µM. With `O=c1oc(-c2ccc(O)c(O)c2)cc2cccc(O)c12` [THUNBERGINOL A] the GI50 was inactive: 3.57 µM. For `C=C1C(=O)O[C@@H]2[C@H]3O[C@]3(C)CCC=C(C)CC[C@@H]12`, the GI50 was inactive: 19.5 µM. For `COc1ccc(OC)c(C2CCc3nc4nc(N)nc(N)c4cc3C2)c1` (stereo not given), the GI50 was inactive: 2.39 µM. In the case of `COC(=O)C(Cc1c(C2Nc3ccccc3C2CC(NC(C)=O)C(=O)OC)[nH]c2ccccc12)NC(C)=O` (stereo not given), the GI50 is reported as inactive: > 100 µM. With `CC1(C)SC2C(C(=O)O)N=C(Cc3ccccc3)N2C1C(=O)O` (stereo not given) the GI50 was inactive: 15.3 µM. For `O[C@@H]1C[C@@H]2N[C@@](O)(C[C@@H]2O)[C@H]1O`, the GI50 was inactive: > 100 µM. In the case of `COC(=O)c1c(OC(C)=O)ccc2c1c1c(OC(C)=O)c3ccccc3c(OC(C)=O)c1n2Cc1cc(OC)cc(OC)c1`, the GI50 is reported as inactive: 22 µM. In the case of `CCC1(CN(C)C)CC/C(=C\c2ccc(OC)cc2)C1=O` (stereo not given), the GI50 is reported as inactive: > 100 µM. `O=S(O)CCCCCSSCCCCSSCCCCCS(=O)O` was tested, and the GI50 was inactive: > 100 µM. For `COc1ncc(C#CC(=O)c2ccccc2OC)c(OC)n1`, the GI50 was inactive: 19 µM. `Cc1ccc(/N=N/c2ccc(O)c(CN(C)C)c2)cc1` was tested, and the GI50 was inactive: 33.7 µM. `CC(=O)/C(=C/N1C(=O)CC(=O)NC1=S)C(=O)Nc1ccccc1C` was tested, and the GI50 was inactive: 49.5 µM. With `O=C1OC(c2ccco2)=N/C1=C\c1cccc([N+](=O)[O-])c1` the GI50 was inactive: > 100 µM. `COc1cc2c(cc1OC)C(=O)/C(=C/c1ccccc1)CC2` was tested, and the GI50 was inactive: 60.4 µM. For `COc1ccc(/N=N/c2c(C)c(C#N)c(=S)n(C3OC(COC(C)=O)C(OC(C)=O)C(OC(C)=O)C3OC(C)=O)c2-c2ccccc2)cc1` (stereo not given), the GI50 was inactive: 12.9 µM. In the case of `CC(C)Cc1cnc(CC(C)C)c(=O)[nH]1`, the GI50 is reported as inactive: > 100 µM. `COc1cc2c(c(OC)c1OC)-c1ccc(SC)c(=O)cc1C(CC(=O)Oc1ccc(F)cc1)C2` (stereo not given) was tested, and the GI50 was inactive: 2.31 µM. With `Cc1[nH]c(C)c(CN(C)C)c1CN(C)C` the GI50 was inactive: > 100 µM. With `COC1=CC23C=CC1[C@@H](c1ccccc1)C2=C(C)C(=O)N3C(=O)NC1CCCCC1` (stereo not given in full) the GI50 was inactive: 21.4 µM. `CC1(C)CCC[C@]2(C)[C@H]3[C@H](C#N)c4cc(O)c(O)cc4O[C@@]3(C)CC[C@@H]12` was tested, and the GI50 was inactive: > 10 µM. For `O=[N+]([O-])c1ccc(/C=N/n2c(CO)nc3ccccc32)o1`, the GI50 was inactive: 10.5 µM. `CCOc1ccc(/C=C(\Cl)c2ccc(OC)c(OC)c2)cc1` was tested, and the GI50 was inactive: 39.4 µM. `NC1=NCC(CN2CCOCC2)O1` (stereo not given) was tested, and the GI50 was inactive: > 100 µM. With `CC(C)(C)c1cc(C(OCCl)(C(F)(F)F)C(F)(F)F)c2c(c1)C(C(F)(F)F)(C(F)(F)F)OC21c2ccccc2C(=O)c2ccccc21` the GI50 was inactive: > 100 µM. For `CCOC(=O)C1(Cc2ccccc2)Cc2cc3c(cc2C1)CCC3`, the GI50 was inactive: 44.8 µM. In the case of `COc1ccc(-c2cc(=O)c3ccc(O)cc3o2)c(OC)c1OC`, the GI50 is reported as inactive: > 100 µM. `O=C(Nc1c(Cl)cc([N+](=O)[O-])cc1Cl)C(=O)C1C(=O)NC(=S)NC1=O` was tested, and the GI50 was inactive: > 100 µM. `C=CCOCn1ccc(=O)[nH]c1=O` was tested, and the GI50 was inactive: > 100 µM. In the case of `Nc1c(C(=O)Nc2ccc([As](=O)(O)O)cc2)cnc2nnnn12`, the GI50 is reported as inactive: > 100 µM. In the case of `N=C(N)NS(=O)(=O)c1ccc(Nc2c3ccccc3nc3c(C(=O)Nc4ccc(S(N)(=O)=O)cc4)ccc(Cl)c23)cc1`, the GI50 is reported as inactive: > 100 µM. In the case of `COc1ccc(C(=O)/C=C/c2ccc3c(c2)OCO3)c(OCc2ccccc2)c1`, the GI50 is reported as inactive: 48.9 µM. For `CC(C)(C)OC(=O)[C@@H]1ON2O[C@H](OC3CCCC3(c3ccccc3)c3ccccc3)C[C@H]3OC(=O)[C@@H]1[C@H]32` (stereo not given in full), the GI50 was inactive: > 100 µM. With `COc1ccc(/N=C/C=C/Nc2ccc(OC)cc2)cc1` the GI50 was inactive: 13 µM. For `Cc1[nH]n(-c2ncc(C#N)c(=O)[nH]2)c(=O)c1CCO`, the GI50 was inactive: > 100 µM. In the case of `C[C@]12C[C@H](O)[C@H]3[C@@H](CCC4=CC(=O)CC[C@@]43C)[C@@H]1CC[C@@H]2c1csc(-c2ccccc2)n1`, the GI50 is reported as inactive: 49.3 µM. For `Cc1c2c3ccccc3nc-2n(C)c2ccccc12`, the GI50 was active: 1.07 µM. `O=C1NC2CCCCCC2C12CCCCC2` (stereo not given) was tested, and the GI50 was inactive: > 100 µM. In the case of `CCN1/C(=C/C#C/C(C)=C\c2sc3ccc(Cl)cc3[n+]2CC)Sc2ccc(Cl)cc21`, the GI50 is reported as inactive: 2 µM. `CCOC(=O)C(NC(=O)c1ccccc1)(Nc1ccc(S(=O)(=O)Nc2cc(C)nc(C)n2)cc1)C(F)(F)F` (stereo not given) was tested, and the GI50 was inactive: > 100 µM. With `O=C(Oc1c(Br)cc(Br)cc1C(=O)Oc1ccccc1)C(=O)Oc1c(Br)cc(Br)cc1C(=O)Oc1ccccc1` the GI50 was inactive: > 100 µM. In the case of `OCC(O)C(OC1OC(CO)C(O)C(O)C1O)c1nn(-c2ccccc2)c2nc3cc(Cl)ccc3nc12` (stereo not given), the GI50 is reported as inactive: > 100 µM. With `Cc1cccc(C(C)(C)C)c1NC(=O)CC1Sc2ccccc2NC1=O` (stereo not given) the GI50 was inactive: > 100 µM. In the case of `COc1cc2c(oc(=O)c3c4occc4cc(OC)c23)c2cccc(OCc3ccccc3)c12`, the GI50 is reported as inactive: > 100 µM. `CN1CCN(Cc2nc3cccc4c3c([n+]2[O-])-c2ccccc2-4)CC1` was tested, and the GI50 was inactive: 7.64 µM. For `CN(C)/C=C(\C(=O)c1ccccc1)n1nc(-c2ccccc2)cc1-c1ccccc1`, the GI50 was inactive: > 10 µM. In the case of `COc1cc2c(c(OC)c1OC)-c1ccc(SC)c(=O)cc1[C@@H](NCc1cccc([N+](=O)[O-])c1)CC2`, the GI50 is reported as active: < 0.01 µM. With `CCCCCCCCCOC(=S)NCCCCC` the GI50 was inactive: 61.1 µM. For `O=S(=O)(O)n1ccnc1`, the GI50 was inactive: > 100 µM. With `CCCCCC(=O)CCCCCCCC(O)CC(=O)OCC` (stereo not given) the GI50 was inactive: > 100 µM. In the case of `CN(C)CCc1ccc(Cl)cc1Cl`, the GI50 is reported as inactive: > 100 µM. In the case of `CCc1nc(N)nc(N)c1-c1ccc(Cl)c(Cl)c1` [ETOPRINE], the GI50 is reported as inactive: 6.15 µM. In the case of `Cc1nc2c(=O)n(C)c(=O)nc-2n(-c2ccc(Cl)cc2)c1C`, the GI50 is reported as inactive: > 100 µM. For `CC(=O)OCC1OC(n2c(-c3ccc(C)cc3)cc(-c3ccco3)c(C#N)c2=S)C(OC(C)=O)C(OC(C)=O)C1OC(C)=O` (stereo not given), the GI50 was inactive: > 100 µM. In the case of `COc1ccc(S(=O)(=O)NNS(C)(=O)=O)cc1OC`, the GI50 is reported as inactive: > 100 µM. With `COc1nc(NC2OC(COC(C)=O)C(OC(C)=O)C(OC(C)=O)C2OC(C)=O)c(/N=C/C=N/c2c(NC3OC(COC(C)=O)C(OC(C)=O)C(OC(C)=O)C3OC(C)=O)nc(OC)[nH]c2=O)c(=O)[nH]1` (stereo not given) the GI50 was inactive: > 100 µM. With `c1ccc2c(c1)c1c(n2CCOCCN2CCCC2)CCCC1` the GI50 was inactive: 42.5 µM. With `CO/N=C1\CC(NC(=O)C(F)(F)F)c2ccsc21` (stereo not given) the GI50 was inactive: > 100 µM. In the case of `COc1cc(CC(=O)c2cc3c(cc2-c2ccccc2)OCO3)cc(OC)c1OC`, the GI50 is reported as inactive: > 100 µM. With `CCOC(=O)C1=NN(c2ccc(C)cc2)C2(c3ccccc3)C=C(c3ccccc3)N(C)CCN12` (stereo not given) the GI50 was inactive: > 100 µM. In the case of `O=C(COc1ccc(Cl)cc1)N1N=C(c2ccc([N+](=O)[O-])o2)CC1(O)c1ccccc1` (stereo not given), the GI50 is reported as inactive: 10.2 µM. `c1cc2c3c(c1)[C@@H]1O[C@@H]1c1cccc(c1-3)[C@@H]1O[C@H]21` was tested, and the GI50 was inactive: 32.5 µM. `CC1(C)S[C@@H]2[C@H](NC(=O)C3(N)CCCCC3)C(=O)N2[C@H]1C(=O)O` [CYCLACILLIN] was tested, and the GI50 was inactive: > 100 µM. With `N=C(N)C(/N=N\c1ccccc1)C(=N)N` (stereo not given) the GI50 was inactive: 48.6 µM. In the case of `CCOC(=O)C(Cc1c[nH]c2cc([N+](=O)[O-])ccc12)NS(=O)(=O)c1ccc2ccccc2c1` (stereo not given), the GI50 is reported as inactive: 22.7 µM. With `CN(C)/C=N/c1ccc2nonc2c1` the GI50 was inactive: > 100 µM. `CS(=O)(=O)OCC1=C(COS(C)(=O)=O)C(=O)c2c(O)ccc(O)c2C1=O` was tested, and the GI50 was inactive: > 100 µM. With `CCOC(=O)C(=CNC(=S)c1ccncc1)C(=O)OCC` the GI50 was inactive: > 100 µM. For `CCc1cc(Cc2ccc(C)c(NC(=O)C(=O)C3C(=O)NC(=O)NC3=O)c2CC)cc(C)c1NC(=O)C(=O)C1C(=O)NC(=O)NC1=O`, the GI50 was inactive: > 100 µM. In the case of `CCCCOCc1cc(CN2CCN(C)CC2)c(O)c2ncccc12`, the GI50 is reported as inactive: 19.6 µM. In the case of `Cc1ccc(C2OC(COCc3ccc(Cl)cc3)C(OCc3ccc(Cl)cc3)C2O)cc1` (stereo not given), the GI50 is reported as inactive: 16.6 µM. For `COc1ccc(NC(=O)CC(=O)N/N=C/c2ccc(N(CCC#N)S(=O)(=O)c3ccccc3)cc2)cc1`, the GI50 was inactive: > 100 µM. In the case of `O=C1Nc2ccccc2N/C1=C\C(=O)c1ccccc1O`, the GI50 is reported as inactive: > 100 µM. For `Cc1ccc(S(=O)OC2c3ccccc3Cc3ccccc32)cc1` (stereo not given), the GI50 was inactive: 23.9 µM. For `CC(C)(C)C(=O)Nc1ccccc1Br`, the GI50 was inactive: > 100 µM. In the case of `Cc1ccc(C2=C(C#N)C(=O)N3CCN=C3S2)cc1`, the GI50 is reported as inactive: > 100 µM. `C1=N\CCN2CCN(CC/N=C\c3ccccc3OCc3cccc(n3)COc3ccccc3/1)CC2` was tested, and the GI50 was inactive: > 50 µM. For `CCCCCCCCCCCCCCCCNCCCN(C)CCCN`, the GI50 was inactive: 16.8 µM. For `Nc1ccc(C(=O)N2CCC[C@H]2CO)c(N)c1`, the GI50 was inactive: > 100 µM. For `NC(=S)N/N=C/C(O[C@@H](/C=N/NC(N)=S)CO)n1cnc2c(N)ncnc21` (stereo not given in full), the GI50 was inactive: > 75.3 µM. With `Cc1ccc2c(c1)nc1n2C(c2c(F)cccc2F)SC1` (stereo not given) the GI50 was inactive: 53.8 µM. For `C[C@]12CC[C@H](O)C=C1CC[C@@H]1[C@@H]2CC[C@]2(C)C(c3ccc(=O)oc3)CC[C@]12O` (stereo not given in full), the GI50 was active: 0.0162 µM.

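Protocol summary: plate cells (96-well), add compound at 5 concentrations, incubate 48 h, interpolate endpoints linearly. GI50 is the concentration that inhibits growth by half.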 Calls of active or inactive are those of the source. No stated cut-off is given here; in the data, active = GI50 up to about 1.1 µM and inactive = higher.
